{"source": "PubChem BioAssay AID1347417", "about": "(National Center for Advancing Translational Sciences (NCATS), 2020)", "note": "Hit rate of the full screen: of about 120,000 compounds, about 5,300 (4.4%) were called active. Inconclusive results, whose numbers are uncertain, are shown with a selection of clear calls. The call rests on the fitted dose curve; in most records, active means well fitted inhibition curve with a large enough effect; inconclusive means small, poorly fitted or top-dose-only effect; inactive means no such curve, though single readings can be large or run the other way. Where the call is inconclusive, the potency comes from a doubtful curve fit. Potency means the concentration at half of the fitted maximal effect; tags describe the fitted curve by direction and shape.", "data": [{"assay": "qHTS Primary assay for Inhibitors of Plasmodium falciparum Dd2 growth in vitro; further: nearly all actives have a fitted effect of over 65% in size;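 on activity, negative = inhibition: plate controls were DMSO vehicle for no effect and reference drug for full effect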", "settings": "P. falciparum Dd2 growth, SYBR Green, 72 h; activity, negative = inhibition: at 28.9 µM (top of the series) unless noted; series mostly up to 28.9 µM", "summary_of_the_method": "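Infected erythrocytes (Dd2, 0.3% parasitemia, 2.5% hematocrit final) are added to compound in RPMI-1640/Albumax II medium, grown 72 h at 37C in low oxygen, then lysed with saponin/Triton-X containing SYBR Green and read by fluorescence.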", "values": [{"smiles": "COc1ccccc1-c1cnc(Nc2cc(F)cc(N3CCOCC3)c2)c2c1CCO2", "Potency": "inconclusive: 31.6 µM [inhibitor, single point]"}, {"smiles": "COc1ccccc1CN1CCC(CN(CC(C)C)C(=O)C2CCCN2)CC1", "note": "(configuration not stated)", "Potency": "inconclusive: 20 µM [inhibitor, partial curve, poor fit]"}, {"smiles": "O=C1NCc2ccccc2CC12CCN(Cc1cc(F)ccc1F)CC2", "activity, negative = inhibition": "inactive: 0.472%"}, {"smiles": "CCOc1ccc(C(=O)N2CCCN(C(=O)C3CC3)c3ccccc32)cc1", "outcome": "inactive"}, {"smiles": "COc1ccc(-c2cc(N3CCCN(C(=O)C(C)c4ccccc4)CC3)n[nH]2)cc1", "note": "(configuration not stated)", "Potency": "inconclusive: 1 µM [inhibitor, partial curve, poor fit]"}, {"smiles": "COc1cccc(CN2C[C@@H](COCC3CC3)[C@H](c3ccncc3)C2)n1", "Potency": "active: 11.2 µM"}, {"smiles": "COc1ccc(C2(CNC(=O)C(=O)Nc3cccc(C(F)(F)F)c3)CCCC2)cc1OC", "Potency": "inconclusive: 17.8 µM [inhibitor, single point]"}, {"smiles": "Cc1ccc(S(=O)(=O)Nc2cccc(-c3ccc(N4CCCCC4)nn3)c2)s1", "Potency": "inconclusive: 11.2 µM [inhibitor, single point]"}, {"smiles": "CC1(c2cccnc2)N(CCOc2ccccc2)C(=O)OC12CCN(C(=O)Cc1cccc(F)c1)CC2", "note": "(configuration not stated)", "Potency": "inconclusive: 0.891 µM [inhibitor, full curve]"}, {"smiles": "CC(=O)c1cccc(NC(=O)c2nc(-c3ccc(C)cc3)n3c2CCCCC3)c1", "Potency": "inconclusive: 17.8 µM [inhibitor, single point]"}, {"smiles": "CC(C)(C)OC(=O)NC(C)(CN)c1ccccc1", "note": "(configuration not stated)", "Potency": "inconclusive: 2.24 µM [inhibitor, full curve]"}, {"smiles": "COc1ccccc1CC(=O)N1CCCc2ncc(C(=O)Nc3ccccc3C)cc21", "Potency": "inconclusive: 10 µM [inhibitor, partial curve, poor fit]"}, {"smiles": "Cc1ccc(C2c3[nH]c4ccccc4c3CCN2C(=O)Nc2ccc(C)c(C)c2)cc1", "note": "(configuration not stated)", "Potency": "inconclusive: 20 µM [inhibitor, single point]"}, {"smiles": "Cc1nc2cccnc2n1CC1CCCN(S(=O)(=O)c2ccc(F)c(F)c2)C1", "note": "(configuration not stated)", "activity, negative = inhibition": "inactive: -17.4%"}, {"smiles": "Cc1ccc2nc(CN(C)C(=O)c3ccc(C)c(N4CCNC4=O)c3)[nH]c2c1", "activity, negative = inhibition": "inactive: -0.604%"}, {"smiles": "O=C(NC1CCCc2c1[nH]c1c(Cl)cccc21)C1(c2ccccc2)CCOCC1", "note": "(configuration not stated)", "Potency": "inconclusive: 11.2 µM [inhibitor, single point]"}, {"smiles": "Cc1ccc(CNCc2c(C(=O)O)n(Cc3ccccc3C)c3cc(C)ccc23)cc1", "Potency": "active: 3.16 µM"}, {"smiles": "COc1cccc(CNC(=O)Cn2c(C)cc3nc4n(c(=O)c32)CCCC4)c1", "activity, negative = inhibition": "inactive: 199%"}, {"smiles": "N#Cc1cccc(NC(=O)Cn2ccn3nc4c(c3c2=O)CCCC4)c1", "Potency": "inconclusive: 17.8 µM [inhibitor, partial curve, poor fit]"}, {"smiles": "Cc1ccc(-c2ncc(C(=O)NCC3CCCCC3)c(-c3ccncc3)n2)cc1", "outcome": "inactive"}, {"smiles": "CC(C)C(=O)N1Cc2ccccc2CC2(CCCN(C)C2)C1", "note": "(configuration not stated)", "Potency": "inconclusive: 10 µM [inhibitor, single point]"}, {"smiles": "COc1cc(OC)c(NC(=O)CCn2cnc3onc(-c4ccc(F)cc4)c3c2=O)cc1Cl", "Potency": "inconclusive: 7.94 µM [inhibitor, partial curve]"}, {"smiles": "CCNC(=O)N(C1CC1)C1CCOC2(CCN(C(=O)CC3CCCC3)CC2)C1", "note": "(configuration not stated)", "activity, negative = inhibition": "inactive: -8.33%"}, {"smiles": "Cc1cccc(NCc2nc3ccccc3n2CCOc2ccccc2C)c1", "Potency": "inconclusive: 14.1 µM [inhibitor, single point]"}, {"smiles": "CCN1c2cc(C(=O)NCc3cccs3)ccc2C(=O)N2CCCCCC21", "note": "(configuration not stated)", "Potency": "inconclusive: 20 µM [inhibitor, partial curve, poor fit]"}, {"smiles": "CC(C)C[C@@H](NC(=O)[C@@]1(O)C[C@@H](O)[C@H](O)[C@@H](NS(=O)(=O)c2cccc(C(F)(F)F)c2)C1)C(N)=O", "outcome": "inactive"}, {"smiles": "Clc1ccc(CN2CCOC[C@H](Oc3ccccc3)C2)cc1", "Potency": "inconclusive: 1 µM [inhibitor, full curve, poor fit]"}, {"smiles": "COCCN1Cc2ccc(NCC(C)C)nc2C(C)(C(=O)Nc2cccc(F)c2)C1", "note": "(configuration not stated)", "Potency": "inconclusive: 1.41 µM [inhibitor, full curve, poor fit]"}, {"smiles": "COCCn1c2c(c(=O)n1-c1ccccc1)CCN(C(=O)c1nc3ccccc3[nH]1)C2", "activity, negative = inhibition": "inactive: 22.6% [at 44.1 µM]"}, {"smiles": "O=C(c1ccccc1)N1CCC(N2CCCNC2=O)CC1", "Potency": "inactive"}, {"smiles": "COc1ccc(F)cc1CN1CCC(CO)(CN2CCCC2)CC1", "Potency": "inconclusive: 8.91 µM [inhibitor, partial curve, poor fit]"}, {"smiles": "CCc1ccc(C2Sc3ccccc3NC3=C2C(=O)c2ccccc23)cc1", "note": "(configuration not stated)", "Potency": "active: 2 µM"}, {"smiles": "N#Cc1ccc(CN2CCC23Cc2ccccc2NC3=O)cc1", "note": "(configuration not stated)", "Potency": "inconclusive: 10 µM [inhibitor, partial curve]"}, {"smiles": "Fc1ccc2nc(CO[C@H]3CN(C4CCC4)C[C@H]3F)[nH]c2c1", "Potency": "inconclusive: 14.1 µM [inhibitor, partial curve, poor fit]"}, {"smiles": "CCC(C(=O)NC1CCCCC1)n1c(SCc2ccc(F)cc2)nc2ccncc21", "note": "(configuration not stated)", "Potency": "inconclusive: 11.2 µM [inhibitor, partial curve, poor fit]"}, {"smiles": "CC(C)c1ccc(N2C(=O)N[C@@H]3CCN(C(=O)c4ccc(N(C)C)cc4)[C@@H]3C2=O)cc1", "outcome": "inactive [at 44.1 µM]"}, {"smiles": "O=C(Cc1ccc(F)c(F)c1F)N[C@@H]1CCNC[C@H]1O", "activity, negative = inhibition": "inactive: -13.9%"}, {"smiles": "O=C(NCC1CC1)C1CCCN(C2CCN(Cc3ccncc3)CC2)C1", "note": "(configuration not stated)", "activity, negative = inhibition": "inactive: -7.77%"}, {"smiles": "CC[C@H]1CN2CC[C@H]1C[C@@H]2CNCc1ccc(C(F)(F)F)cc1", "Potency": "inconclusive: 2.51 µM [inhibitor, full curve]"}, {"smiles": "COc1ccc(C(=O)NCC(c2ccc(N(C)C)cc2)N2CCCC2)c(OC)c1", "note": "(configuration not stated)", "Potency": "inconclusive: 7.08 µM [inhibitor, partial curve]"}, {"smiles": "Cc1ccc(-c2cn[nH]c2C2CCCN(C(=O)CCCn3cnnn3)C2)cc1", "note": "(configuration not stated)", "activity, negative = inhibition": "inactive: -17.6%"}, {"smiles": "CCOc1ccc(C(=O)NCc2ccc3c(c2)CCN3C(=O)c2ccccc2)cc1", "Potency": "inconclusive: 10 µM [inhibitor, single point]"}, {"smiles": "CCCNC(=O)NC[C@@H]1C=C(C)[C@H](Cc2nc3nc(OC)ccc3[nH]2)C[C@H]1C(C)C", "Potency": "active: 10 µM"}, {"smiles": "CC1=C(C(=O)Nc2ccccc2)C(c2cccc(C)c2)N2C(CC(=O)NCC(C)C)=CSC2=N1", "note": "(configuration not stated)", "Potency": "inconclusive: 10 µM [inhibitor, partial curve, poor fit]"}, {"smiles": "O[C@H]1[C@H](NCc2cnc3ccccc3c2)[C@H]2CO[C@H](O2)[C@@H]1N1CCCCC1", "Potency": "inconclusive: 31.6 µM [inhibitor, single point]"}, {"smiles": "O=C(NCc1ccccc1)NCC1Cn2cccc2C(=O)N1Cc1ccccc1", "note": "(configuration not stated)", "outcome": "inactive"}, {"smiles": "CCc1ccc(CNC(=O)c2ccc3c(c2)nc2n3CCC(C)C2)cc1", "note": "(configuration not stated)", "activity, negative = inhibition": "inactive: 13.2%"}, {"smiles": "Cc1cccc(CNC(=O)c2ccc3c(c2)N(C)C2CCCCCN2C3=O)c1", "note": "(configuration not stated)", "Potency": "inconclusive: 3.16 µM [inhibitor, single point]"}, {"smiles": "COc1ccccc1CN1C(=O)COC[C@@H]1[C@H](O)c1ccc(NC(=O)c2ccccc2)cc1", "Potency": "inconclusive: 17.8 µM [inhibitor, single point]"}, {"smiles": "Cc1noc(C)c1CN1C[C@@H]2[C@H](C1)N(CCOc1ccccc1)C(=O)C(C)(C)[S+]2(=O)[O-]", "Potency": "inconclusive: 11.2 µM [inhibitor, single point]"}, {"smiles": "Cc1ccc(CNC(=O)C2CCCCC(=O)N2C)o1", "note": "(configuration not stated)", "activity, negative = inhibition": "inactive: -24.6%"}, {"smiles": "CCS(=O)(=O)c1ncc(N(Cc2ccco2)Cc2sccc2C)c(C(=O)Nc2ccc(C)cc2C)n1", "Potency": "inconclusive: 5.01 µM [inhibitor, partial curve]"}, {"smiles": "O=C(Nc1ccc2ncnc(N3CCCCC3)c2c1)c1cncc(Br)c1", "Potency": "inconclusive: 1.41 µM [inhibitor, partial curve, poor fit]"}, {"smiles": "Cc1cnn(CCC(=O)NC2CCc3nnc(C)n3CC2)c1", "note": "(configuration not stated)", "activity, negative = inhibition": "inactive: 20.6%"}, {"smiles": "CC(C)c1ccc(N2CC(C(=O)N(C)Cc3cc(C(C)C)on3)CC2=O)cc1", "note": "(configuration not stated)", "activity, negative = inhibition": "inactive: -22.4%"}, {"smiles": "O=C(NCC1CC1)c1cccc(OC2CN(Cc3cc(F)c(F)c(F)c3)C2)c1", "Potency": "inconclusive: 0.141 µM [inhibitor, full curve, poor fit]"}, {"smiles": "CCCc1cc(N2CCC(N3CC(Oc4ccccc4F)C3)CC2)nc(C)n1", "Potency": "inconclusive: 3.16 µM [inhibitor, partial curve]"}, {"smiles": "O=C(CCc1ccccc1)Nc1cccc(-c2nnc3n2CCCC3)c1", "Potency": "inconclusive: 11.2 µM [inhibitor, single point]"}, {"smiles": "CCc1cnc(N2CCC(COc3ccc4c(cnn4CC[S+](C)(=O)[O-])c3)CC2)nc1", "Potency": "inconclusive: 6.31 µM [inhibitor, partial curve, poor fit]"}, {"smiles": "OC1(c2csc(CN3CCc4ccccc4C3)n2)CCNCC1", "Potency": "inconclusive: 5.01 µM [inhibitor, partial curve, poor fit]"}, {"smiles": "OC1(c2csc(CN3CCN(c4ccccn4)CC3)n2)CCN(Cc2ccccc2)CC1", "Potency": "active: 8.91 µM"}, {"smiles": "O=C(CCc1cc2n(n1)CCCNC2)Nc1ccc2c(c1)OCCO2", "activity, negative = inhibition": "inactive: -1.17%"}, {"smiles": "COc1cc(Cl)ccc1C(=O)N1CCC(Cc2nc(C(C)C)no2)CC1", "activity, negative = inhibition": "inactive: 22%"}, {"smiles": "COc1ccc(C2Cn3nnc(C(=O)N4CCN(C(=O)c5ccc(C)cc5C)CC4)c3CO2)cc1", "note": "(configuration not stated)", "Potency": "inconclusive: 17.8 µM [inhibitor, single point]"}, {"smiles": "CCO[C@H]1CN(C2CCN(c3ccc(C)c(Cl)c3)CC2)C[C@@H]1O", "Potency": "inconclusive: 7.94 µM [inhibitor, partial curve, poor fit]"}, {"smiles": "O=C(NCc1ccccc1Cl)C1CCN(C(=O)c2ncn3c2COC(c2ccccc2)C3)CC1", "note": "(configuration not stated)", "activity, negative = inhibition": "inactive: -20.4%"}, {"smiles": "COc1ccc(CN2CCCC3(Cc4ccccc4CNC3=O)C2)cc1", "note": "(configuration not stated)", "Potency": "inconclusive: 6.31 µM [inhibitor, partial curve, poor fit]"}]}]}
